# Laboratory results: PubChem BioAssay AID588342 (National Center for Advancing Translational Sciences (NCATS), 2011)
# The whole screen tested about 360,000 compounds, of which about 25,000 (6.9%) were called active. The shares of active, inactive and inconclusive entries below differ from those in the screen. Calls come from the whole dose curve; as a rule, active = well fitted inhibition curve with a large enough effect; inconclusive = small, poorly fitted or top-dose-only effect; inactive = flat fitted curve, though single readings scatter. Potencies of inconclusive entries are doubtful fits and often do not repeat.
# Molecular target: Luciferin 4-monooxygenase (Photinus pyralis) (UniProt P08659)
# Assay: qHTS profiling assay for firefly luciferase inhibitor/activator using purifed enzyme and Km concentrations of substrates (counterscreen for miR-21 project); note: nearly all actives have a fitted effect of over 55% in size;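 for activity change, negative = inhibition: plate controls were vehicle for no effect and reference inhibitor for full effect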
# Conditions: purified FLuc, luminescence inhibition; activity change, negative = inhibition: at 57.5 µM (top of the series)
# Outline: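 Biochemical qHTS of compounds, final roughly 60 µM downward over six points, against 10 nM purified firefly luciferase using Km concentrations of substrates (10 uM D-luciferin, 10 uM ATP) in Tris acetate pH 7.5 buffer; luminescence output.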
# Potency is the fitted concentration of half-maximal effect; tags give direction and shape of the fitted curve.
# UniProt P08659, sequence (P08659 whole entry, looked up): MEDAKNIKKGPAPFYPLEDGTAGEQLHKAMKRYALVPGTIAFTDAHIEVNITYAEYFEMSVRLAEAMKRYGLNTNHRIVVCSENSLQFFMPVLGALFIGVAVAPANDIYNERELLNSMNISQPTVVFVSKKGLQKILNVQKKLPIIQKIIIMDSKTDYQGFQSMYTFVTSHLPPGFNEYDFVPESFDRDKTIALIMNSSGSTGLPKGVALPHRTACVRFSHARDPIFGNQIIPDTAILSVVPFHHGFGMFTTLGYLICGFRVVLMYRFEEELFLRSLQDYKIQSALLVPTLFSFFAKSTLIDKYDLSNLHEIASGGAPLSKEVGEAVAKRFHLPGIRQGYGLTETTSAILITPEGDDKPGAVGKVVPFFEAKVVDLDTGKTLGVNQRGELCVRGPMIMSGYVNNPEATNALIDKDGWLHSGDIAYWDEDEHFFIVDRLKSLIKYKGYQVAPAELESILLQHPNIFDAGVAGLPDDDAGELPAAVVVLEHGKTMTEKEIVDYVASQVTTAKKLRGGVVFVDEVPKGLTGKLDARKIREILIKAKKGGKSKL
Compound,Potency,"activity change, negative = inhibition"
Cc1ccccc1-c1nc2sc3c(c2c(=O)n1N)CCCC3,active: 6.75 µM,
CN1CCN(S(=O)(=O)c2ccc(NC(=O)c3csc4ccccc34)cc2)CC1,"inconclusive: 33.8 µM [inhibitor, partial curve, poor fit]",
CCCn1nc2cc(C(=O)NCCc3cccs3)ccc2c1OCC,"inconclusive: 19 µM [inhibitor, single point]",
Cc1ccc(NC(=O)C(SCC(=O)O)c2ccccc2)cc1C (stereo not drawn),"inconclusive: 37.9 µM [inhibitor, partial curve, poor fit]",
CC(=O)c1ccc(N2CCN(C(=O)Nc3ccc(Cl)cc3)CC2)cc1,,inactive: -4.76%
COc1ccc2c3c(c(=O)oc2c1)C1O[C@](c2ccsc2)(Cc2cc(C#N)ccc21)O3,"inconclusive: 6.92 µM [inhibitor, single point]",
Cc1csc(NC(=O)c2nn(C)c(C)c2[N+](=O)[O-])n1,"inconclusive: 37.9 µM [inhibitor, partial curve, poor fit]",
Cc1ccc(Cl)cc1NC(=O)CCCn1c(=O)c2cccn2c2ccccc21,active: 12 µM,
N#Cc1nc(-c2ccccc2Cl)oc1NCC1CCCO1 (stereo not drawn),"inconclusive: 23.9 µM [inhibitor, partial curve]",
O=C(CS(=O)(=O)Cc1ccccc1)Nc1ccc(Cl)cn1,"inconclusive: 8.49 µM [inhibitor, single point]",
COc1ccc(/C=N/NC(=O)c2ccc(Cl)cc2)cc1Cn1cc(Cl)cn1,,inactive: 3.7%
Cc1ccc(NC(=O)CSc2nc3ccccc3nc2N2CCCC2)cc1,"inconclusive: 30.1 µM [inhibitor, partial curve, poor fit]",
Cc1ccccc1NC(=O)COC(=O)c1ccc2c(c1)OCCO2,"inconclusive: 16.9 µM [inhibitor, partial curve]",
Cn1nccc1C(=O)N/N=C/c1c(O)ccc2ccccc12,"inconclusive: 15.1 µM [inhibitor, partial curve]",
COc1ccccc1NC(=O)N(Cc1ccco1)Cc1cc2cccc(C)c2[nH]c1=O,"inconclusive: 12 µM [inhibitor, partial curve, poor fit]",
O=C(COc1ccccc1C(=O)O)Nc1ccc(SC(F)F)cc1,"inconclusive: 15.1 µM [inhibitor, partial curve]",
COc1cc(C(=O)Nc2c(C(=O)O)[nH]c3ccc(Br)cc23)cc(OC)c1OC,"inconclusive: 37.9 µM [inhibitor, single point]",
CCOC(=O)Nc1nnc(-c2ccc(OC)cc2)s1,active: 4.78 µM,
CSCC(=O)Nc1nc(-c2ccc3c(c2)OCCO3)cs1,active: 10.7 µM,
CC(=O)N1c2ccc(S(=O)(=O)N3CCCCCC3)cc2CC1C(=O)NCc1ccccc1 (stereo not drawn),,inactive: -6.36%
O=C1NC(=S)S/C1=C1\Sc2ccccc2N1CCCS(=O)(=O)O,"inconclusive: 37.9 µM [inhibitor, partial curve, poor fit]",
Cc1cccc(C)c1OCC(=O)Nc1cccc(-c2nnc(-c3ccccc3)o2)c1,"inconclusive: 10.7 µM [inhibitor, partial curve, poor fit]",
Cc1ccc(-c2nc(CSCC(=O)NC3CCN(Cc4ccccc4)CC3)c(C)o2)cc1,"inconclusive: 30.1 µM [inhibitor, partial curve, poor fit]",
C=CCn1cnc2c(oc3ccccc32)c1=O,"inconclusive: 37.9 µM [inhibitor, partial curve, poor fit]",
CC1=Nc2cc(C(=O)NC3CCCCC3)ccc2Sc2ccc(Cl)cc21,,inactive: -9.06%

Compound,Potency,"activity change, negative = inhibition"
CCOC(=O)c1ccc2c(c1)C1C=CCC1C(C(=O)OCC)N2 (stereo not drawn),"inconclusive: 37.9 µM [inhibitor, partial curve, poor fit]",
O=C(Nc1ccc(Cl)cc1)c1cccc(NC2=NC3CS(=O)(=O)CC3S2)c1 (stereo not drawn),"inconclusive: 37.9 µM [inhibitor, partial curve, poor fit]",
Cc1ccc(C(=O)N/C(=C\c2ccccc2)C(=O)NCCN2CCOCC2)cc1,,inactive: -0.251%
COc1ccc(NC(=O)c2coc(=O)c3ccccc23)cc1OC,,inactive: 4.44%
CCOc1ccc(C(=O)NCCCN2CCOCC2)cc1OCC,,inactive: -0.444%
S=c1[nH]nc(-c2cccc(Br)c2)o1,"inconclusive: 26.9 µM [inhibitor, single point]",
CC(C)[C@H](NC(=O)c1ccccc1)C(=O)OCC(=O)c1ccc2c(c1)NC(=O)CO2,"inconclusive: 23.9 µM [inhibitor, single point]",
COc1cc(NC(=O)c2cc3sccc3n2C)cc(OC)c1,active: 8.49 µM,
COCCNc1nc(C)cc(-c2cc(-c3ccc(Cl)cc3)on2)n1,active: 15.1 µM,
CCCCN(C(=O)C1CC(=O)N(c2ccc(CC)cc2)C1)c1c(N)n(CCC)c(=O)[nH]c1=O (stereo not drawn),,inactive: 4.13%
Cc1ccc(OCC(=O)Nc2nnc(SCc3cc(=O)c4ccccc4[nH]3)s2)cc1C,"inconclusive: 9.53 µM [inhibitor, partial curve]",
O/N=C1/CC/C(=N\O)c2nn(-c3ccccc3)nc21,"inconclusive: 21.3 µM [inhibitor, single point]",
COc1ccc(NC(=S)N2CCC(C(=O)c3ccc(C)cc3)CC2)cc1,"inconclusive: 23.9 µM [inhibitor, single point]",
CCOC(=O)c1cc(-c2ccccc2)sc1NC(=O)c1ccc(OC)cc1,"inconclusive: 21.3 µM [inhibitor, partial curve, poor fit]",
O=C(O)c1ccc(/C=C(\c2nc3ccccc3[nH]2)c2nc3ccccc3s2)cc1,active: 15.1 µM,
CC(C)(C)c1ccc(C(=O)NCCC(=O)Nc2cc(Cl)ccc2N2CCOCC2)cc1,active: 21.3 µM,
O=C(NCc1ccccc1Cl)c1ccc2c(c1)nnn2C1CCCC1,,inactive: -19.3%
Cc1cc(NC(=O)c2cccc(F)c2)no1,"inconclusive: 19 µM [inhibitor, partial curve, poor fit]",
COc1ccc(NC(=O)c2cnc(SCC(=O)NCCc3ccccc3)n(C)c2=O)cc1,,inactive: -3.19%
O=C(NC1(C(F)(F)F)C(=O)Nc2c1c(=O)[nH]c(=O)n2CCc1ccccc1)c1ccc(Cl)cc1 (stereo not drawn),"inconclusive: 37.9 µM [inhibitor, partial curve, poor fit]",
COc1ccccc1CNC(=O)C1CC(c2ccccc2F)=NO1 (stereo not drawn),"inconclusive: 42.6 µM [inhibitor, partial curve, poor fit]",
O=C(Nc1ccccn1)c1cc(-c2ccc(Cl)s2)nc2ccccc12,"inconclusive: 37.9 µM [inhibitor, partial curve, poor fit]",
CCCCC(=O)Nc1ccc2nc(SCC(=O)N3CCOCC3)sc2c1,"inconclusive: 30.1 µM [inhibitor, single point]",
O=C(N/N=C/c1ccc2c(c1)OCO2)c1cc2ccccc2o1,"inconclusive: 2.69 µM [inhibitor, full curve]",
CCOc1ccc(-n2cc(C(=O)Nc3cccc(Cl)c3)c3cc(OC)c(OC)cc3c2=O)cc1,,inactive: -0.0587%

Compound,Potency,"activity change, negative = inhibition"
Fc1ccc(COc2cccc(-c3n[nH]c(=S)o3)c2)cc1,"inconclusive: 23.9 µM [inhibitor, single point]",
CCOc1ccc(Nc2c(S(=O)(=O)c3ccc(C)cc3)cnc3cc(OC)c(OC)cc23)cc1,,inactive: -13.6%
Cc1cccc(/C(N)=N/OC(=O)c2cccs2)c1,active: 0.757 µM,
CC(Nc1ccccc1)C(=O)Nc1ccc(F)cc1 (stereo not drawn),,inactive: -0.287%
CC1=C(C(=O)OC(C)C)C(c2cccnc2)n2ncnc2N1 (stereo not drawn),,inactive: 0.981%
C/C(=N\NS(=O)(=O)c1ccc([N+](=O)[O-])cc1)c1cccs1,"inconclusive: 30.1 µM [inhibitor, single point]",
Cc1ccc(OC(=O)c2oc3ccc(F)cc3c2C)c(C)c1,active: 7.57 µM,
CC1(c2ccc(Cl)cc2)NC(=O)N(CC(=O)N2CCN(S(=O)(=O)c3ccccc3)CC2)C1=O (stereo not drawn),,inactive: 13.6%
O=C(Cc1ccccc1)Nc1ccc(Br)c(Cl)c1,"inconclusive: 19 µM [inhibitor, partial curve]",
COc1cccc(NC(=O)Nc2cccn(Cc3ccc(C)cc3)c2=O)c1,"inconclusive: 13.5 µM [inhibitor, partial curve]",
O=C(/C=C/c1ccc(Cl)c(Cl)c1)NCc1ccco1,"inconclusive: 37.9 µM [inhibitor, partial curve, poor fit]",
CCN(C(=O)c1cc2cccc(OC)c2oc1=O)c1ccccc1,,inactive: 1.19%
Oc1ccc(/C=C/c2nc(-c3ccccc3O)n(-c3ccccc3)n2)c(O)c1,"inconclusive: 19 µM [inhibitor, partial curve, poor fit]",
[O-]/[N+](=C\c1ccco1)c1ccc(Cl)cc1,"inconclusive: 19 µM [inhibitor, single point]",
Nc1c(S(=O)(=O)c2ccccc2)nnn1-c1ccccc1,,inactive: 1.97%
Cc1ccc(-c2noc(-c3ccccc3NC(=O)C3CC(=O)N(c4cccc(C)c4)C3)n2)cc1 (stereo not drawn),,inactive: -4.76%
CCOC(=O)C1CCCN(C(=O)CSCc2ccccc2)C1 (stereo not drawn),"inconclusive: 16.9 µM [inhibitor, partial curve]",
Cc1ncsc1C(=O)Nc1nc2c(s1)CCCC2,active: 7.57 µM,
Cc1ccc(-c2nn(-c3ccccc3)cc2C=O)o1,active: 3.01 µM,
CCOC(=O)c1c(C)[nH]c(C(=O)COC(=O)c2ccccn2)c1C,active: 6.01 µM,
CCOc1ccc(-c2nnc(SCC(=O)N3CCNC3=O)o2)cc1,active: 5.36 µM,
COCCn1c(C)cc(C2=NNC(=Nc3ccccc3)SC2)c1C,active: 0.757 µM,
N#Cc1ccccc1OCCN1C(=O)c2ccccc2C1=O,"inconclusive: 16.9 µM [inhibitor, partial curve, poor fit]",
